From the BET-seq Pho4 binding data (Le et al. 2018)
This is one part of the list. The energies were worked out here from pooled read counts, against the library average; single values are noisy.

Each sequence was assayed against T1, Pho4 (S. cerevisiae) (UniProt P07270) (assay: relative binding free energy (BET-seq); higher = weaker binding). Settings: reference: library average.
T1 sequence: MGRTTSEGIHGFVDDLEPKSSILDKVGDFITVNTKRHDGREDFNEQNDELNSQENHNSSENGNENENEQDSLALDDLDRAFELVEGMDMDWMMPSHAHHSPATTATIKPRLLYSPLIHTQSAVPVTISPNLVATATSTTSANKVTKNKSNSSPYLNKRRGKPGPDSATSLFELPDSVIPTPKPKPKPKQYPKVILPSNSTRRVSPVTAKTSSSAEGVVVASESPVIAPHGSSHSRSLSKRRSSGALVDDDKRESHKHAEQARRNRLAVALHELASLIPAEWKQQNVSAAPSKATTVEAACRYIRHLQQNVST

| Sequence | relative binding free energy [kcal/mol] |
| --- | --- |
| ATATTCACGTGGTTTC | 0.04 |
| GGGCTCACGTGACGGT | 0.33 |
| AGATTCACGTGCTTTG | 0.37 |
| GCGGGCACGTGTCTGT | -0.1 |
| GCTGTCACGTGGTTGA | 0.17 |
| GGAGTCACGTGTTTTC | 0.21 |
| ATGCTCACGTGTGAGT | 0.07 |
| TTTGGCACGTGCTGAG | -0.05 |
| AGTACCACGTGGTTAG | -0.17 |
| TTAGCCACGTGTGCGG | -0.15 |
| ATACTCACGTGATAGT | 0.35 |
| CGGGTCACGTGGTGGG | 0.12 |
| GTGTCCACGTGCAGGG | 0 |
| GCTTGCACGTGTGAGC | 0.29 |
| GAATACACGTGAGTGG | 0.39 |
| GGTATCACGTGTCGTA | 0.2 |
| AGTTGCACGTGCGGTA | -0.1 |
| GCTGCCACGTGGGTGG | -0.13 |
| ATATACACGTGTGCTG | -0.07 |
| GTGCTCACGTGTTGGA | 0.23 |
| AGTAGCACGTGTGGCG | -0.02 |
| GGGTACACGTGTCGGG | 0.17 |
| GTTGGCACGTGGTCAG | -0.24 |
| GGTTTCACGTGTGATC | 0.33 |
| TTGTTCACGTGTGGGG | 0.35 |

| Sequence | relative binding free energy [kcal/mol] |
| --- | --- |
| GTAGGCACGTGAGCGG | 0.17 |
| TTGTGCACGTGAAGTA | 0.28 |
| GGAGTCACGTGTTTCG | 0.02 |
| GGGGGCACGTGAGACA | 0.16 |
| GTAGTCACGTGTGTGA | 0.05 |
| AGGGCCACGTGGTGTA | -0.17 |
| GCTTTCACGTGAGTGG | 0.33 |
| TAAGGCACGTGCGTAT | -0.24 |
| GTCGTCACGTGTTCGG | 0.19 |
| GTCAACACGTGGGGGA | -0.13 |
| GCCGGCACGTGCGGTG | -0.12 |
| ATGGGCACGTGCCTTG | -0.15 |
| TCTTGCACGTGGAAAT | 0.2 |
| TTATGCACGTGGTTAG | -0.1 |
| TTAGGCACGTGACGTT | -0.08 |
| GTGTTCACGTGGTGCG | 0.29 |
| ATTGGCACGTGACGTG | -0.08 |
| TGTACCACGTGGGGTC | -0.24 |
| ACGTGCACGTGGTAAG | -0.11 |
| ACTTGCACGTGAAAGT | 0.24 |
| GGTGTCACGTGATAGC | 0.19 |
| TGACGCACGTGCATGG | -0.07 |
| TGAATCACGTGATGCT | 0.22 |
| TTGTACACGTGAGGAT | 0.21 |
| ATAGGCACGTGAAGTG | 0.14 |

| Sequence | relative binding free energy [kcal/mol] |
| --- | --- |
| GAAGTCACGTGTGCGC | 0.33 |
| TGTTGCACGTGGCTAG | 0 |
| TGGTGCACGTGGGGTT | -0.13 |
| ATGGGCACGTGATGTT | 0.11 |
| GGGGGCACGTGAGAGC | 0.11 |
| GGTTACACGTGATGTG | 0.16 |
| GTAAGCACGTGGGTGT | -0.18 |
| GCGAGCACGTGTGGCG | -0.01 |
| TTGCGCACGTGGGTCT | -0.24 |
| TGGTCCACGTGTCTTT | 0.03 |
| GGGATCACGTGATATG | 0.32 |
| GTGGGCACGTGTCTGC | -0.1 |
| GGCGTCACGTGGGCGC | -0.08 |
| TTTAGCACGTGCGTCG | -0.18 |
| ATTGGCACGTGGGGAC | -0.26 |
| AGTGACACGTGGGGTA | -0.19 |
| GTGGTCACGTGGCGAG | 0.11 |
| ACGGCCACGTGGGTGT | -0.27 |
| AAGGTCACGTGGCGGT | 0.11 |
| GATGGCACGTGCTTTA | 0.06 |
| TGAATCACGTGTTATG | 0.24 |
| TAACGCACGTGTTTTA | -0.03 |
| TGTATCACGTGAAGTT | 0.32 |
| AGTCTCACGTGGGTGG | 0.07 |
| TGTATCACGTGATTCT | 0.08 |

| Sequence | relative binding free energy [kcal/mol] |
| --- | --- |
| ATTGTCACGTGGCCGT | -0.06 |
| TTATCCACGTGAGTTA | 0.14 |
| TCGTTCACGTGATATG | 0.49 |
| TATAACACGTGTAGTA | 0.05 |
| TTGGACACGTGAGGCA | 0.12 |
| TTGTGCACGTGTCGCT | -0.07 |
| GTACGCACGTGGTGTG | -0.12 |
| CTTAACACGTGGGTTG | -0.13 |
| GGGGCCACGTGCTGTT | -0.23 |
| GGTGTCACGTGGTCCA | 0.16 |
| TAGGTCACGTGTGATG | 0.21 |
| AGAATCACGTGGGACT | 0.16 |
| GAGCGCACGTGTGGAG | 0.06 |
| TCTGGCACGTGAAGGT | 0.02 |
| CTTGGCACGTGTTTGT | -0.09 |
| TTGAGCACGTGTGTCT | 0 |
| GGGAGCACGTGATGGG | 0.05 |
| TTTATCACGTGCAGTT | 0.03 |
| TGGGACACGTGTTCTG | -0.04 |
| TTGAGCACGTGATGAT | 0.09 |
| CTTGACACGTGTTGTT | -0.08 |
| AGAGACACGTGTTGCG | 0.11 |
| AGGTGCACGTGAAAAT | 0.35 |
| GGTATCACGTGTTGCA | 0.02 |
| AGTTTCACGTGATATT | 0.14 |

| Sequence | relative binding free energy [kcal/mol] |
| --- | --- |
| TATAACACGTGTGTGT | 0.09 |
| CTATTCACGTGGCGTT | 0.17 |
| CTATTCACGTGTGATT | 0.27 |
| CGGGTCACGTGTATTA | 0.12 |
| AAAATCACGTGTTGGA | 0.14 |
| AGGGACACGTGTAGGA | 0.05 |
| TGCGTCACGTGGCAGG | -0.2 |
| GGGCCCACGTGGGCGG | -0.28 |
| TGCAACACGTGGTAGG | -0.01 |
| CCGGGCACGTGTTGTA | -0.06 |
| ATGGCCACGTGTTCGG | -0.09 |
| ATTTGCACGTGGCGCG | -0.21 |
| GAGGTCACGTGTGCTT | 0.27 |
| AGAGGCACGTGTAATA | -0.08 |
| TGATGCACGTGTTTGG | -0.11 |
| GGCATCACGTGGGCGT | 0.05 |
| GCCGTCACGTGGATGG | 0.13 |
| TGGCGCACGTGTGGCA | -0.01 |
| GGGTTCACGTGGTGAT | 0.46 |
| TATATCACGTGGTAGC | 0.09 |
| GTGTGCACGTGGGACA | -0.15 |
| TTCTGCACGTGGCGTG | -0.2 |
| TCGGTCACGTGTAATG | 0.18 |
| AGCTGCACGTGGGTAG | -0.22 |
| CGGTTCACGTGGGAAG | 0.18 |

| Sequence | relative binding free energy [kcal/mol] |
| --- | --- |
| TGGGGCACGTGGTAGG | -0.16 |
| ATGGCCACGTGTGGTG | -0.07 |
| TATAACACGTGGCAGG | 0.04 |
| AGTTCCACGTGTAGAT | 0.34 |
| AGTTTCACGTGTGTGT | 0.34 |
| TGTTGCACGTGATGGG | 0.11 |
| CGGATCACGTGCGGGA | 0.18 |
| AGGGTCACGTGGGGGG | 0.03 |
| ATTTCCACGTGTTTGA | 0.09 |
| TTTCGCACGTGGGGGG | -0.09 |
| AGCGGCACGTGATGAG | -0.1 |
| AATGTCACGTGGCGTT | 0.04 |
| AATTTCACGTGAGTAG | 0.36 |
| AGGTTCACGTGTCTTG | 0.25 |
| GGTAGCACGTGTATGC | -0.07 |
| GTTGTCACGTGGGTTG | 0.06 |
| CTTATCACGTGGTAGT | -0.01 |
| TTTTGCACGTGATTTT | 0.06 |
| TAGTACACGTGGTCGG | -0.01 |
| CAGCACACGTGGGTGG | -0.04 |
| TTTTGCACGTGGTACA | -0.11 |
